# The supplement of paper PMC4166925
# ± gives the standard deviation of the averaged measurements. Whole data set: some 33,000 sequences, median “E-score (dimensionless, -0.5 to 0.5)” near -0.049, cut for the highest 2% near 0.37. The list shows a part of the results.
# Tested on: T1, PmTbr T-box DNA-binding domain (GST fusion)
# T1 sequence: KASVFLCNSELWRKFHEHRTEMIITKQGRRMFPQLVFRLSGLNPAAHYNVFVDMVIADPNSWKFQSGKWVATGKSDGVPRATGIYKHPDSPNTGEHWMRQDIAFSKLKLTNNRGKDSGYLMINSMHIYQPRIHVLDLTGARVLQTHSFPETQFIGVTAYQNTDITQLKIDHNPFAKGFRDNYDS
# Assay: PBM E-score of 8-mer (E-score (dimensionless, -0.5 to 0.5)); Tbr is Tbrain of the sea star Patiria miniata (Pm) or the sea urchin Strongylocentrotus purpuratus (Sp); higher = stronger binding preference; most listed sequences are background and not binding sites
# Settings: the construct has about 5 more residues each side
# Method in brief: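 Using the Universal PBM Analysis Suite, every ungapped 8-mer received an enrichment E-score averaged over duplicate arrays. Probe intensities came from double-stranded Universal Agilent oligonucleotide arrays incubated with 200 nM GST-fused Tbr T-box DNA-binding domain in PBS (pH 7.5). That protein was expressed in BL21 E. coli at 20 °C and purified by glutathione affinity chromatography.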
row,Sequence,PBM E-score of 8-mer
1,AACCCTTA,-0.139 ± 0.028
2,TACAGCAA,-0.151 ± 0.028
3,CGGGTTCC,-0.20336 ± 4.2e-05
4,AACTGAAC,-0.182 ± 0.052
5,AGGAAGGA,-0.229 ± 0.01
6,CATAAAAC,-0.189 ± 0.027
7,CCAGCTGA,-0.0424 ± 0.022
8,ATATGACA,0.101 ± 0.082
9,CATGGCGA,-0.00081 ± 0.067
10,ATGTTGGG,-0.0371 ± 0.037
11,CTACCACA,0.0152 ± 0.068
12,CCGCCTGC,0.184 ± 0.037
13,CCACTCAA,0.0843 ± 0.014
14,GTCGCCAA,0.288 ± 0.038
15,GAATTTAA,-0.00867 ± 0.05
16,TCACAACA,0.384 ± 0.00069
17,CACCAACA,0.251 ± 0.021
18,AGTGGCTC,-0.186 ± 0.0041
19,CATCTGTA,-0.0838 ± 0.0045
20,AAGAACTA,-0.235 ± 0.024
21,AGGTACAG,-0.284 ± 0.041
22,TAGAAACA,-0.144 ± 0.083
23,GATATTGA,-0.161 ± 0.079
24,TCGAGTCA,-0.171 ± 0.018
25,CGTCTGGC,-0.0959 ± 0.043

row,Sequence,PBM E-score of 8-mer
1,CTACGCAG,-0.0253 ± 0.12
2,GCTGTAAA,0.0931 ± 0.015
3,ATCGCAGC,0.0756 ± 0.056
4,CCGGCAGC,-0.0338 ± 0.015
5,AGGCTCCG,-0.0551 ± 0.12
6,ATACACAA,-0.1389 ± 0.0012
7,AAACGGGG,-0.0287 ± 0.035
8,GACCAGAC,-0.276 ± 0.021
9,ACGCGGAG,-0.106 ± 0.022
10,CGGTCCCC,-0.3 ± 0.062
11,AGGAGATA,-0.146 ± 0.09
12,GGGCCGTA,-0.408 ± 0.049
13,CGTCTTAG,0.037 ± 0.033
14,ATAGCAGG,0.0422 ± 0.059
15,CGCTGTAG,-0.0386 ± 0.073
16,AACTCAGG,-0.0793 ± 0.031
17,CGCCTTGC,0.19 ± 0.058
18,AGGATTTG,-0.266 ± 0.093
19,TGACGTAA,-0.0667 ± 0.067
20,ACCCAGAA,-0.0346 ± 0.026
21,AAATTAGG,-0.13 ± 0.02
22,AGGACTAC,-0.262 ± 0.041
23,AATAATTC,-0.0492 ± 0.051
24,ATCCCTGC,-0.118 ± 0.023
25,ATAATGAA,-0.127 ± 0.017

row,Sequence,PBM E-score of 8-mer
1,AAGAGTCC,-0.179 ± 0.055
2,ATTTAGGA,-0.254 ± 0.056
3,CAGGCACC,-0.0396 ± 0.032
4,GCCTCTGA,0.0009 ± 0.067
5,CTCGTCAG,0.0897 ± 0.016
6,ACATGCCA,0.155 ± 0.0062
7,CCGCTCTC,-0.118 ± 0.027
8,CCGTAACG,-0.0369 ± 0.11
9,TCAGGAGA,-0.2573 ± 0.0014
10,GGAGAGCC,-0.27 ± 0.039
11,AACGTGTC,0.4102 ± 0.0015
12,GAGGGAAC,-0.0842 ± 0.053
13,GAGGTAAA,-0.149 ± 0.038
14,ACGGTATA,0.11 ± 0.029
15,ACGTTGGG,0.0498 ± 0.0094
16,ATCCTGCC,-0.0684 ± 0.0044
17,GCTTACAC,0.205 ± 0.0004
18,CCGCTCAC,0.0824 ± 0.049
19,GGAACAAC,-0.239 ± 0.011
20,CCGTCTGA,-0.335 ± 0.036
21,CCGTTTGA,-0.0869 ± 0.038
22,ACTTAAGA,-0.0828 ± 0.02
23,ACAATAGC,0.00889 ± 0.033
24,GTGCGGCA,0.0622 ± 0.029
25,AGGATGTC,-0.1 ± 0.095

row,Sequence,PBM E-score of 8-mer
1,GAAACATA,0.0953 ± 0.011
2,CTGGCGGA,-0.1756 ± 0.00055
3,CGATGACA,0.25 ± 0.052
4,CTAGCCCA,-0.0665 ± 0.076
5,ATCAGCTA,0.047 ± 0.078
6,AGTTCAGA,-0.124 ± 0.024
7,CGCTCACA,0.226 ± 0.05
8,AGGACCTG,-0.121 ± 0.067
9,ATAGACGA,-0.153 ± 0.086
10,CCATGAAG,-0.0515 ± 0.11
11,GCGCACTA,-0.094 ± 0.056
12,GCGCGCCC,0.116 ± 0.0012
13,CTACAACA,0.154 ± 0.0099
14,ACTATTGC,-0.139 ± 0.045
15,AAGTGAAA,0.154 ± 0.056
16,CTTAATCA,-0.0311 ± 0.061
17,ACGACATA,-0.0803 ± 0.0047
18,AACGTTGC,-0.0321 ± 0.016
19,AGCAGCGA,-0.0709 ± 0.041
20,GCAAACCC,-0.0342 ± 0.058
21,GTAAGGGA,0.0358 ± 0.00031
22,AAACGGGT,-0.107 ± 0.017
23,CCTATAGG,-0.0964 ± 0.022
24,CACCGCCC,0.11 ± 0.088
25,CTTGCTGA,0.0928 ± 0.0061

row,Sequence,PBM E-score of 8-mer
1,CGAGTGTA,0.188 ± 0.0038
2,CGCGAGTC,0.268 ± 0.043
3,ACACGGAT,0.0988 ± 0.011
4,CTAGGACA,0.1104 ± 0.00076
5,ACAATACT,0.0722 ± 0.013
6,AAGCTTCA,-0.0871 ± 0.073
7,TGCATAAA,-0.213 ± 0.022
8,AAGACTCT,-0.262 ± 0.0039
9,GGTTGTCA,0.342 ± 0.0085
10,AGGACCTC,-0.194 ± 0.072
11,AGTTCCGA,-0.0912 ± 0.015
12,ACTTCGTC,0.129 ± 0.013
13,GCATTTGA,-0.186 ± 0.053
14,ACGGGGTA,-0.167 ± 0.036
15,CCGACTTC,-0.233 ± 0.043
16,CACGAAGC,-0.0959 ± 0.073
17,ACTTGCCT,0.0601 ± 0.071
18,GTTTCCCA,0.036 ± 0.024
19,GATGCGAC,0.187 ± 0.041
20,AAAATTCC,0.00113 ± 0.065
21,CGCGGCAC,0.276 ± 0.0071
22,GAACAGCA,0.00265 ± 0.038
23,ACAGTCGT,0.0487 ± 0.021
24,GTGGCGAA,0.274 ± 0.0057
25,GAAACGTA,-0.107 ± 0.019

row,Sequence,PBM E-score of 8-mer
1,CCGAGGAC,-0.0595 ± 0.058
2,ATGACAAC,0.241 ± 0.054
3,AAGCGACT,-0.133 ± 0.011
4,GCTCAACA,-0.00527 ± 0.061
5,ATACAAAT,-0.244 ± 0.043
6,TAATAGCA,0.105 ± 0.025
7,CGATGAAG,0.02 ± 0.026
8,AAGCATCG,-0.225 ± 0.035
9,ATCTTCCG,0.0521 ± 0.053
10,ACCGATCT,-0.0688 ± 0.066
11,ATTTCTTA,-0.18 ± 0.061
12,GCCCCCGA,-0.107 ± 0.028
13,ACTGTTGG,0.109 ± 0.044
14,AGACGAAT,0.00553 ± 0.0032
15,CCTTAACA,0.148 ± 0.081
16,AGGGGATA,-0.16 ± 0.06
17,CCGCAATC,-0.0639 ± 0.0093
18,AGAGTCTC,0.0383 ± 0.056
19,ATTTAGTG,0.0687 ± 0.029
20,AGGTGTAT,0.328 ± 0.0044
21,ATGATATA,-0.0568 ± 0.0053
22,CTACTCCC,-0.31 ± 0.027
23,CGTAAACG,0.0455 ± 0.046
24,CTTGGGAC,-0.1559 ± 0.00096
25,ATAGCACA,0.174 ± 0.035

row,Sequence,PBM E-score of 8-mer
1,ACGGTTAC,-0.0754 ± 0.028
2,GACCGCCC,-0.3013 ± 3.5e-05
3,CTACCGTA,-0.066 ± 0.0093
4,ACCGTTTC,-0.0847 ± 0.02
5,AAGTCTGT,-0.0429 ± 0.043
6,CGGGTTGC,0.122 ± 0.081
7,CCGACAGC,0.0678 ± 0.046
8,ATACGAAG,-0.226 ± 0.059
9,AAATAAAC,-0.0315 ± 0.039
10,CCCTTTAG,0.0181 ± 0.024
11,CTACTAGA,-0.239 ± 0.057
12,CAAATATG,-0.0284 ± 0.035
13,CTAACCAG,0.0114 ± 0.0043
14,AAGACGAA,-0.247 ± 0.023
15,TAATGCAA,-0.067 ± 0.06
16,ATCTCTCC,-0.218 ± 0.0088
17,AAACAGGA,-0.146 ± 0.0093
18,GCCAACGC,0.106 ± 0.038
19,GATCAATC,-0.153 ± 0.0053
20,CAGCGCTG,0.0573 ± 0.064
21,CCGTAGGA,-0.121 ± 0.073
22,CGTGGCCA,-0.000825 ± 0.032
